{"sequences": {"note": "By UniProt entry, the sequences of proteins in these tests, tags left out.", "UniProt Q14258": "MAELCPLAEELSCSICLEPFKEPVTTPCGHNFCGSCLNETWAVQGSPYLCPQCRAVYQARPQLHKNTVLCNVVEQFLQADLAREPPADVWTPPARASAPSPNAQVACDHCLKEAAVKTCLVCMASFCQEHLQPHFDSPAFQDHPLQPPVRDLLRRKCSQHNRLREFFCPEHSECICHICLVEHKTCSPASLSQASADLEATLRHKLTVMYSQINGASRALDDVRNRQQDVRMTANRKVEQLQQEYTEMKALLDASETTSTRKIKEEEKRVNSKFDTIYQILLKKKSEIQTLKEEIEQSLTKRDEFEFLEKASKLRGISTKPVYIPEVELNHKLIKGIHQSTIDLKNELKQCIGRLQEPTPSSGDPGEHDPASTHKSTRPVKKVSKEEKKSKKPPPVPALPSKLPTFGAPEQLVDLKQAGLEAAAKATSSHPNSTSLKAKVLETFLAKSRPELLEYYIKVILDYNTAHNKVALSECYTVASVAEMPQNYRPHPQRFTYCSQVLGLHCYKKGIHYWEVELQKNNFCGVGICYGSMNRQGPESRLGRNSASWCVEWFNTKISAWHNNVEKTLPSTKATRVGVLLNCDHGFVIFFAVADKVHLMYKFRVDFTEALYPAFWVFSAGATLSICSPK"}, "source": "paper PMC3738492", "key": {"[1]": {"molecular_target": "T1, N-terminal FLAG-tagged RIG-I (full-length) (not stated (the printed entry NP_055129 is a human one)) (UniProt O95786)", "T1 sequence": "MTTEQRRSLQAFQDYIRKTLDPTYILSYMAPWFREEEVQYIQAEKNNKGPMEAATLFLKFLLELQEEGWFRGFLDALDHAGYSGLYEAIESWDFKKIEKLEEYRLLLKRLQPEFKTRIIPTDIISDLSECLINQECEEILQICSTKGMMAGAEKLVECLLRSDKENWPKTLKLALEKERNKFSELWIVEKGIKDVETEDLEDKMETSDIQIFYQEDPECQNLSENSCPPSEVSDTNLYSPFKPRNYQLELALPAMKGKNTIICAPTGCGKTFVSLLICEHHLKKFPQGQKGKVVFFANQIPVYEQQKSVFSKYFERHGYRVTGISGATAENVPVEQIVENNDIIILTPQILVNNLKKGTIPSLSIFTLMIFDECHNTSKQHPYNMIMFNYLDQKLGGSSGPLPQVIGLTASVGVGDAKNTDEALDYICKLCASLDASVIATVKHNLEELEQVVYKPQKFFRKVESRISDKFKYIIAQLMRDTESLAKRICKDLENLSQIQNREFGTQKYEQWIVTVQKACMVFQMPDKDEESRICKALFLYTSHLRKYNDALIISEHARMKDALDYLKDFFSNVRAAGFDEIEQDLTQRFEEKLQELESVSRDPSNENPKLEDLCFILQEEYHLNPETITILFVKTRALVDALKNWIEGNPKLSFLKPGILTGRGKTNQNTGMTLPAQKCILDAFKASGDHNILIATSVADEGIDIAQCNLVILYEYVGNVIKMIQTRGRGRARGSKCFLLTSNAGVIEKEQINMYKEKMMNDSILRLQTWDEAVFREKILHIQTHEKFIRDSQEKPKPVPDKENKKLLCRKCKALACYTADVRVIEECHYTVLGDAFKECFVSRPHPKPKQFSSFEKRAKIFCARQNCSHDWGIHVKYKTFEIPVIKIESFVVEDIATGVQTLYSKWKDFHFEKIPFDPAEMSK", "assay": "co-IP; as a3 but without ectopic Riplet expression; HEK293FT, IP with anti-FLAG antibody"}, "[2]": {"molecular_target": "T2, FLAG-tagged RIG-I K788R (not stated (the printed entry NP_055129 is a human one)) (UniProt O95786)", "T2 sequence": "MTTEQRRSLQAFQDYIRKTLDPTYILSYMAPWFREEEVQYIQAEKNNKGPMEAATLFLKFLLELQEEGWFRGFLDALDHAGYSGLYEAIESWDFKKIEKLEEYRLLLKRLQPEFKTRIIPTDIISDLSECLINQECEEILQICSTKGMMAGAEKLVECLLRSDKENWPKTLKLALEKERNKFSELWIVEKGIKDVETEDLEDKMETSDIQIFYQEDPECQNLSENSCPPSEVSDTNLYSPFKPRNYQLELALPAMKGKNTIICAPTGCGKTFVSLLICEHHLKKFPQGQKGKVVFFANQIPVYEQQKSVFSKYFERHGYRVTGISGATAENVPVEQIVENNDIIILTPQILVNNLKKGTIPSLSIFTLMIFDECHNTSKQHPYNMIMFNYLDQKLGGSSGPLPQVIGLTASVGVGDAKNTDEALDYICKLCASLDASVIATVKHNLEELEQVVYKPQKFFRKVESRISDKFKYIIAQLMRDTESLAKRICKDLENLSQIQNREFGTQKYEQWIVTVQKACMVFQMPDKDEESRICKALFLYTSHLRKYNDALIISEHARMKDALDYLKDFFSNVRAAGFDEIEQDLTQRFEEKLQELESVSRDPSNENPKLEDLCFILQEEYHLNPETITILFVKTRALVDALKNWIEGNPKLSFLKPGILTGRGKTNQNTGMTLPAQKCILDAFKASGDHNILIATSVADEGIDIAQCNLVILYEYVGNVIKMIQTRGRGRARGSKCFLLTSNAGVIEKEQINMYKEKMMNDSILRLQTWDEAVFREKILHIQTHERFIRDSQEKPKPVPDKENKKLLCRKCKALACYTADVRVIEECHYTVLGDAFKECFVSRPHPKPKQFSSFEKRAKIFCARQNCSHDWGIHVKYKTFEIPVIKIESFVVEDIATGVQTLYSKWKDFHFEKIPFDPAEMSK", "assay": "co-IP; HEK293FT cells, lysate 24 h after transfection of FLAG-RIG-I (or K788R), HA-TRIM25 and HA-Riplet; IP with anti-FLAG antibody; co-expressed NS3-4A reduced the interaction (Figure 8D)"}, "[3]": {"molecular_target": "T3, endogenous RIG-I (human (endogenous in HEK293FT and HuH7)) (UniProt O95786)", "T3 sequence": "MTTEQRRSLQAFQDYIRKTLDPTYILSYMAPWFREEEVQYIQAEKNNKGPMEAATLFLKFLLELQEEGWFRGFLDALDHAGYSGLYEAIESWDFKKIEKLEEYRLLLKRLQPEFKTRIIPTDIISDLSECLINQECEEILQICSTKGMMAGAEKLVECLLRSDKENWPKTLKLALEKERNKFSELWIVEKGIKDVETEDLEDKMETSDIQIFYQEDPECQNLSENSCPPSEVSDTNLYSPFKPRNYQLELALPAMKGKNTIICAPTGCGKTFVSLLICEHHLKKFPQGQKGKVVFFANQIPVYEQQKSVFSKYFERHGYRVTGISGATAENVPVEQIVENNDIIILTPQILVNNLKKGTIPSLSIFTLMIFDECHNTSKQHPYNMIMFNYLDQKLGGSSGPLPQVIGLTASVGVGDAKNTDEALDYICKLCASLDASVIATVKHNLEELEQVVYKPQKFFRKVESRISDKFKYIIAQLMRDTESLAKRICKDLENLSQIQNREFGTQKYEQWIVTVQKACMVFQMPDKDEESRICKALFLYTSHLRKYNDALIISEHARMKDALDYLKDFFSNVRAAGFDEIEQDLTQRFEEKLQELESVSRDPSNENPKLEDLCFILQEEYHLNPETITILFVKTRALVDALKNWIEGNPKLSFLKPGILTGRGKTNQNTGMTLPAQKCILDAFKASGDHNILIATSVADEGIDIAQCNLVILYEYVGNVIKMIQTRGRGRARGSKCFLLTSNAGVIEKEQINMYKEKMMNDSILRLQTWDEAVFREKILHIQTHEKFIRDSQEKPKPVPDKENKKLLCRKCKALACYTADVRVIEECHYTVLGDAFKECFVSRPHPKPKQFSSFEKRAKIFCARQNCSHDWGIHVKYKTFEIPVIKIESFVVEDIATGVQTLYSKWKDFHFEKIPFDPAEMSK", "assay": "co-IP; endogenous proteins; HEK293FT cells stimulated with 0.8 µg HCV dsRNA (lipofectamine 2000), lysates at the indicated times; IP with anti-RIG-I mAb Alme-1"}, "[4]": {"molecular_target": "T3, endogenous RIG-I (human (endogenous in HEK293FT and HuH7))", "assay": "co-IP; endogenous proteins; HuH7 cells infected with SeV at MOI = 1 for 24 hours; IP with anti-RIG-I (Alme-1) antibody"}, "[5]": {"molecular_target": "T4, FLAG-tagged RIG-I RD (not stated (the printed entry NP_055129 is a human one)) (UniProt O95786)", "T4 sequence": "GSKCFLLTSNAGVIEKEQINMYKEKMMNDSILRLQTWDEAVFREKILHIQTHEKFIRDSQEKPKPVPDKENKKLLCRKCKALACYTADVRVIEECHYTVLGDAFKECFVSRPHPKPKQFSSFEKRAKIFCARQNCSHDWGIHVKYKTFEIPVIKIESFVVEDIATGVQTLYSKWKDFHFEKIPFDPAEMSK", "assay": "co-IP; HEK293FT cells, lysate 24 h after transfection; IP of the FLAG-tagged RIG-I fragment with anti-FLAG antibody; Riplet co-expressed in some panels of Figure 6"}}, "note": "Results are given in words; binding and its absence hold for the method and conditions named. Binding seen in cells or lysates may run through a third protein. Some entries that bind do so weakly or less than the wild type. For some of these results: Sequences can lack the tags named with a protein."}
{"molecule": "C-terminal HA-tagged TRIM25 (from UniProt Q14258 1-630)", "values": [{"measurement": "binding", "setting": "[1]", "result": "binds weakly"}, {"measurement": "binding", "setting": "[2]", "result": "no binding"}]}
{"molecule": "endogenous Riplet (protein, UniProt Q8IUD6 1-432) MAGLGLGSAVPVWLAEDDLGCIICQGLLDWPATLPCGHSFCRHCLEALWGARDARRWACPTCRQGAAQQPHLRKNTLLQDLADKYRRAAREIQAGSDPAHCPCPGSSSLSSAAARPRRRPELQRVAVEKSITEVAQELTELVEHLVDIVRSLQNQRPLSESGPDNELSILGKAFSSGVDLSMASPKLVTSDTAAGKIRDILHDLEEIQEKLQESVTWKEAPEAQMQGELLEAPSSSSCPLPDQSHPALRRASRFAQWAIHPTFNLKSLSCSLEVSKDSRTVTVSHRPQPYRWSCERFSTSQVLCSQALSSGKHYWEVDTRNCSHWAVGVASWEMSRDQVLGRTMDSCCVEWKGTSQLSAWHMVKETVLGSDRPGVVGIWLNLEEGKLAFYSVDNQEKLLYECTISASSPLYPAFWLYGLHPGNYLIIKQVKV", "values": [{"measurement": "binding", "setting": "[3]", "result": "binds"}]}
{"molecule": "endogenous TBK1 (protein, UniProt Q9UHD2 1-729) MQSTSNHLWLLSDILGQGATANVFRGRHKKTGDLFAIKVFNNISFLRPVDVQMREFEVLKKLNHKNIVKLFAIEEETTTRHKVLIMEFCPCGSLYTVLEEPSNAYGLPESEFLIVLRDVVGGMNHLRENGIVHRDIKPGNIMRVIGEDGQSVYKLTDFGAARELEDDEQFVSLYGTEEYLHPDMYERAVLRKDHQKKYGATVDLWSIGVTFYHAATGSLPFRPFEGPRRNKEVMYKIITGKPSGAISGVQKAENGPIDWSGDMPVSCSLSRGLQVLLTPVLANILEADQEKCWGFDQFFAETSDILHRMVIHVFSLQQMTAHKIYIHSYNTATIFHELVYKQTKIISSNQELIYEGRRLVLEPGRLAQHFPKTTEENPIFVVSREPLNTIGLIYEKISLPKVHPRYDLDGDASMAKAITGVVCYACRIASTLLLYQELMRKGIRWLIELIKDDYNETVHKKTEVVITLDFCIRNIEKTVKVYEKLMKINLEAAELGEISDIHTKLLRLSSSQGTIETSLQDIDSRLSPGGSLADAWAHQEGTHPKDRNVEKLQVLLNCMTEIYYQFKKDKAERRLAYNEEQIHKFDKQKLYYHATKAMTHFTDECVKKYEAFLNKSEEWIRKMLHLRKQLLSLTNQCFDIEEEVSKYQEYTNELQETLPQKMFTASSGIKHTMTPIYPSSNTLVEMTLGMKKLKEEMEGVVKELAENNHILERFGSLTMDGGLRNVDCL", "values": [{"measurement": "binding", "setting": "[4]", "result": "binds"}]}
{"molecule": "Riplet (ectopically expressed) (protein, UniProt Q8IUD6 1-432) MAGLGLGSAVPVWLAEDDLGCIICQGLLDWPATLPCGHSFCRHCLEALWGARDARRWACPTCRQGAAQQPHLRKNTLLQDLADKYRRAAREIQAGSDPAHCPCPGSSSLSSAAARPRRRPELQRVAVEKSITEVAQELTELVEHLVDIVRSLQNQRPLSESGPDNELSILGKAFSSGVDLSMASPKLVTSDTAAGKIRDILHDLEEIQEKLQESVTWKEAPEAQMQGELLEAPSSSSCPLPDQSHPALRRASRFAQWAIHPTFNLKSLSCSLEVSKDSRTVTVSHRPQPYRWSCERFSTSQVLCSQALSSGKHYWEVDTRNCSHWAVGVASWEMSRDQVLGRTMDSCCVEWKGTSQLSAWHMVKETVLGSDRPGVVGIWLNLEEGKLAFYSVDNQEKLLYECTISASSPLYPAFWLYGLHPGNYLIIKQVKV", "values": [{"measurement": "binding", "setting": "[5]", "result": "binds"}]}
{"molecule": "HA-tagged IKK-ε (protein, UniProt Q14164 1-716) MQSTANYLWHTDDLLGQGATASVYKARNKKSGELVAVKVFNTTSYLRPREVQVREFEVLRKLNHQNIVKLFAVEETGGSRQKVLVMEYCSSGSLLSVLESPENAFGLPEDEFLVVLRCVVAGMNHLRENGIVHRDIKPGNIMRLVGEEGQSIYKLTDFGAARELDDDEKFVSVYGTEEYLHPDMYERAVLRKPQQKAFGVTVDLWSIGVTLYHAATGSLPFIPFGGPRRNKEIMYRITTEKPAGAIAGAQRRENGPLEWSYTLPITCQLSLGLQSQLVPILANILEVEQAKCWGFDQFFAETSDILQRVVVHVFSLSQAVLHHIYIHAHNTIAIFQEAVHKQTSVAPRHQEYLFEGHLCVLEPSVSAQHIAHTTASSPLTLFSTAIPKGLAFRDPALDVPKFVPKVDLQADYNTAKGVLGAGYQALRLARALLDGQELMFRGLHWVMEVLQATCRRTLEVARTSLLYLSSSLGTERFSSVAGTPEIQELKAAAELRSRLRTLAEVLSRCSQNITETQESLSSLNRELVKSRDQVHEDRSIQQIQCCLDKMNFIYKQFKKSRMRPGLGYNEEQIHKLDKVNFSHLAKRLLQVFQEECVQKYQASLVTHGKRMRVVHETRNHLRLVGCSVAACNTEAQGVQESLSKLLEELSHQLLQDRAKGAQASPPPIAPYPSPTRKDLLLHMQELCEGMKLLASDLLDNNRIIERLNRVPAPPDV", "values": [{"measurement": "binding", "setting": "[5]", "result": "binds"}]}
{"molecule": "Myc-tagged TBK1 (protein, UniProt Q9UHD2 1-729) MQSTSNHLWLLSDILGQGATANVFRGRHKKTGDLFAIKVFNNISFLRPVDVQMREFEVLKKLNHKNIVKLFAIEEETTTRHKVLIMEFCPCGSLYTVLEEPSNAYGLPESEFLIVLRDVVGGMNHLRENGIVHRDIKPGNIMRVIGEDGQSVYKLTDFGAARELEDDEQFVSLYGTEEYLHPDMYERAVLRKDHQKKYGATVDLWSIGVTFYHAATGSLPFRPFEGPRRNKEVMYKIITGKPSGAISGVQKAENGPIDWSGDMPVSCSLSRGLQVLLTPVLANILEADQEKCWGFDQFFAETSDILHRMVIHVFSLQQMTAHKIYIHSYNTATIFHELVYKQTKIISSNQELIYEGRRLVLEPGRLAQHFPKTTEENPIFVVSREPLNTIGLIYEKISLPKVHPRYDLDGDASMAKAITGVVCYACRIASTLLLYQELMRKGIRWLIELIKDDYNETVHKKTEVVITLDFCIRNIEKTVKVYEKLMKINLEAAELGEISDIHTKLLRLSSSQGTIETSLQDIDSRLSPGGSLADAWAHQEGTHPKDRNVEKLQVLLNCMTEIYYQFKKDKAERRLAYNEEQIHKFDKQKLYYHATKAMTHFTDECVKKYEAFLNKSEEWIRKMLHLRKQLLSLTNQCFDIEEEVSKYQEYTNELQETLPQKMFTASSGIKHTMTPIYPSSNTLVEMTLGMKKLKEEMEGVVKELAENNHILERFGSLTMDGGLRNVDCL", "values": [{"measurement": "binding", "setting": "[5]", "result": "binds"}]}
